Measurements: PubChem BioAssay AID504706 (National Center for Advancing Translational Sciences (NCATS), 2011)
In all, about 320,000 compounds went through this assay and about 200 (0.062%) were called active. The shares of active, inactive and inconclusive entries below differ from those in the screen. Calls come from the whole dose curve; as a rule, active = well fitted activation curve with a large enough effect; inconclusive = small, poorly fitted or top-dose-only effect; inactive = no such curve, though single readings can be large or run the other way. Potencies of inconclusive entries are left out as doubtful fits.

test: qHTS assay for re-activators of p53 using a Luc reporter; details: H1299 p53-A138V BP100-luciferase reporter, luminescence, 24 h; series mostly up to 92.2 µM; activity change, positive = activation: at the top concentration; note: nearly all actives have a fitted effect of over 45% in size; for activity change, positive = activation: % of control where 0% means no effect
How it was run: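 H1299 (p53-null), stable ts p53-A138V + BP100-Luc; 1000 cells/well, Opti-MEM/10% FBS; cpd 4 pt, 1:5; 24 h, 37 deg C, 5% CO2; detection reagent 10 min RT; luminescence.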
Potency is the fitted concentration of half-maximal effect; tags give direction and shape of the fitted curve.

SMILES | activity change, positive = activation | Potency
CC(=O)c1cccc(OCc2cc(C(=O)N(C)CCc3cnn(C)c3)no2)c1 | inactive: 4.96% | 
Cc1cc(NC(=O)CCN2C(=O)/C(=C/c3ccccc3F)SC2=S)no1 | inactive: 1.51% | 
COc1cc(C(=O)Nc2nnc(C3=COCCO3)o2)cc(OC)c1OC | inactive: 3.8% | 
CC1CN(C(=O)c2cc(S(=O)(=O)N3CCN(c4ccccc4)CC3)ccc2Cl)CC(C)O1 (centres undefined) | inactive: -5.64% | 
C/C(CC(=O)Nc1cc(C)cc(C)c1)=N\NC(=O)c1ccccn1 |  | inconclusive [activator, full curve, poor fit]
Cc1cc(C)cc(N=Cc2ccc([N+](=O)[O-])s2)c1 | inactive: -39.2% | 
O=C(Nc1cccc(C(=O)NC2CC2)c1)c1ccc(Cl)c(S(=O)(=O)N2CCOCC2)c1 | inactive: -6.04% | 
Cc1ccc2nc(N(CCCN(C)C)C(=O)c3ccco3)sc2c1 |  | inconclusive [activator, full curve, poor fit]
O=C(NC(=S)Nc1ccc(S(=O)(=O)N2CCCC2)cc1)C1CC1 | inactive: 12% | 
Cc1ccc(CN(C(=O)c2cc3ccccc3oc2=O)C2CCS(=O)(=O)C2)cc1 (centres undefined) |  | inconclusive [activator, single point]
O=C(Nc1ccccc1N1CCCCC1)c1ccc(-c2cccc(Cl)c2)o1 |  | inconclusive [activator, single point]
CN1CCN(C(=O)CCN2C(=O)/C(=C/c3cccc(Br)c3)SC2=S)CC1 |  | inconclusive [activator, single point]
CCOC(=O)C1=C(CSc2nc(C)cc(C)c2C#N)OC(N)=C(C#N)C1c1ccccc1 (centres undefined) |  | inconclusive [activator, single point]
Clc1ccc(Cl)c(OCc2cc(-c3ccccc3Cl)on2)c1 | inactive: 7.14% | 
Cn1c(CNc2ccc(Br)cc2)nc2ccccc21 |  | inconclusive [activator, partial curve, poor fit]
OCc1cc(Br)ccc1OCc1nc2ccccc2s1 |  | inconclusive [activator, partial curve, poor fit]
O=C(CCC(=O)N1CCN(S(=O)(=O)c2ccccc2)CC1)c1cccs1 |  | inconclusive [activator, single point]
C/C(=N\OCc1ccc(C#N)cc1)c1ccccc1 | inactive: 7.96% | 
O=C(Nc1cccnc1Cl)c1cc(-c2cccc(O)c2)on1 |  | inconclusive [activator, partial curve, poor fit]
O=C(CCCN1C(=O)/C(=C/c2cccc(Br)c2)SC1=S)Nc1cccnc1 |  | inconclusive [activator, partial curve, poor fit]
CCn1cc(CN2CCCC(C(=O)Nc3cccc(-n4cccn4)c3)C2)c(C)n1 (centres undefined) | inactive: -6.46% | 
O=C(Nc1ccc2c(c1)CCC2)c1ccc(F)cc1 |  | inconclusive [activator, partial curve, poor fit]
O=C(NC1=NCCS1)c1sc2ccccc2c1Cl |  | inconclusive [activator, full curve, poor fit]
CC(C)(C)OC(=O)N/N=C/c1ccc(Br)cc1 |  | inconclusive [activator, partial curve, poor fit]
[O-]/[N+](=C/c1ccc(F)cc1)c1ccc(Cl)cc1 |  | inconclusive [activator, partial curve, poor fit]

SMILES | activity change, positive = activation | Potency
CCOC(=O)c1ccc(N/C=C/C(=O)c2ccccc2)cc1 | inactive: 2.36% | 
CCC(=O)N1CCC(c2ccc(OC)cc2)=N1 |  | inconclusive [activator, partial curve, poor fit]
COc1ccc(/C(C#N)=C/c2ccccn2)cc1 |  | inconclusive [activator, full curve, poor fit]
CC(C)C(NC(=O)c1ccccc1NC(=O)C(C)(C)C)C(=O)N1CCOCC1 (centres undefined) | inactive: -2.86% | 
Nc1cn(C2OC(CO)C(O)C2O)c(=O)[nH]c1=O (centres undefined) |  | inconclusive [activator, single point]
O=[n+]1cc(-c2cc3ccccc3o2)n([O-])c2c1CCCC2 |  | inconclusive [activator, partial curve, poor fit]
Cn1c(CN2CCOCC2)nnc1SCC(=O)Nc1nccs1 |  | inconclusive [activator, single point]
O=C(N/N=C/C=C\c1ccccc1[N+](=O)[O-])c1cccnc1 | inactive: 7.53% | 
CCCn1c(NCc2ccc(C)o2)nc2ccccc21 |  | inconclusive [activator, single point]
OCC1OC(n2cnc3c(NC4CCCCC4)ncnc32)C(O)C1O (centres undefined) | inactive: 1.41% | 
Cc1cc(/C=C2/C(=O)N(C)C(=S)N2C)c(C)n1C1CC1 |  | inconclusive [activator, partial curve, poor fit]
CCCC1=NN(c2ccc([N+](=O)[O-])cc2)C(=O)/C1=C/N(C)C |  | inconclusive [activator, partial curve, poor fit]
CCCCN(CC)CCNC(=O)c1cc2c(C)nc3ccccc3c2o1 | inactive: -7.14% | 
CCOc1cc(/C=C/c2ccc3cccc([N+](=O)[O-])c3n2)ccc1O | inactive: -7.99% | 
O=S(=O)(CCN1CCN(C(c2ccccc2)c2ccccc2)CC1)C(F)(F)F |  | inconclusive [activator, single point]
COc1ccc(/C=C/C(=O)N2CCCc3ccccc32)cc1 |  | inconclusive [activator, full curve]
O=C(Nc1ccccc1)c1cc2ccccc2c(=O)s1 |  | inconclusive [activator, partial curve, poor fit]
Cc1cc(NC(=O)NC(=O)c2ccc(F)cc2F)n[nH]1 | inactive: -2.37% | 
CCCN1CCC(NC(=O)Cc2ccccc2OC)CC1 |  | inconclusive [activator, single point]
Cc1ccc(CSC(Nc2ccc(F)cc2)=C(C#N)C#N)cc1 | inactive: -3.03% | 
COc1cccc(Nc2nc3ccc(OC)cc3s2)c1 |  | inconclusive [activator, partial curve, poor fit]
O=C(NCc1ccccn1)c1cc(-c2ccccc2)on1 |  | inconclusive [activator, single point]
C/C(Cn1nnc([N+](=O)[O-])n1)=N\NC(=O)c1ccccc1 |  | inconclusive [activator, partial curve, poor fit]
O=C(N/N=C/C(Br)=C\c1ccccc1)c1cccs1 |  | inconclusive [activator, partial curve, poor fit]
CCOC(=O)c1sc2nc(Cc3ccc(Cl)cc3)[nH]c(=S)c2c1C | inactive: 0.782% | 

SMILES | activity change, positive = activation | Potency
Cn1c(NCc2cccs2)nc2ccccc21 |  | inconclusive [activator, partial curve, poor fit]
O=c1[nH]c(/C=C/c2ccccn2)nc2ccccc12 |  | active: 11.2 µM
CCN1CCN(Cc2ccc(NC(=O)c3ccc(C)c(NC(=O)C(=O)c4c[nH]c5ccccc45)c3)cc2C(F)(F)F)CC1 | inactive: -16.3% | 
CCSc1nnc(-c2c[nH]c3ccccc23)o1 |  | inconclusive [activator, partial curve, poor fit]
O=C1C(C=Nc2ccccc2)=C(O)c2ccccc21 |  | inconclusive [activator, full curve, poor fit]
CCC1=C(C(=O)OC)C(c2cc(OC)ccc2OC)C(C#N)=C(N)O1 (centres undefined) |  | inconclusive [activator, single point]
Cc1cccc(NC(=O)c2cccnc2)c1 |  | inconclusive [activator, single point]
Nc1c(NC(=O)CC[n+]2ccccc2)cccc1[N+](=O)[O-] |  | inconclusive [activator, partial curve, poor fit]
Cc1cc(C)n(CCNC(=O)c2cc(COc3c(F)cccc3F)on2)n1 | inactive: -0.0851% | 
COc1ccc(S(=O)(=O)N2CCCCC2)cc1C(=O)N1CCCC1 | inactive: 3.41% | 
Cc1ccc(-c2oc3ncnc(N)c3c2-c2ccc(C)cc2)cc1 | inactive: 15% | 
O=C(CSC1=NCCS1)N1CCCCCC1 |  | inconclusive [activator, partial curve, poor fit]
COc1ccccc1-n1cc(-c2ccccc2)c2c(=S)nc[nH]c21 | inactive: -4.49% | 
Fc1cccc(Cl)c1CN1CCN(c2nc3ccccc3s2)CC1 |  | inconclusive [activator, partial curve, poor fit]
O=C(N/N=C/C(Cl)=C/c1ccccc1)c1ccccc1F |  | inconclusive [activator, partial curve, poor fit]
COc1ccc(/C=C2\CCn3c2nc2cc(C(=O)O)ccc2c3=O)cc1O | inactive: -0.943% | 
COC(CSc1nc(N)c2c3c(sc2n1)CN(C)CC3)OC |  | inconclusive [activator, single point]
Cc1ccc(NC(=O)C2COc3ccccc3O2)nc1 (centres undefined) |  | inconclusive [activator, partial curve, poor fit]
CCC1CCC(C(=O)NNC(=O)c2cc(-c3ccco3)[nH]n2)CC1 (centres undefined) | inactive: -1.3% | 
COC(OC)c1nc(SCC(=O)Nc2cccc(Cl)c2)ncc1C(=O)O | inactive: 5.1% | 
COc1ccc(C(=O)Nc2ccc(Nc3ccccc3)cc2)cc1OC | inactive: 1.41% | 
Cc1cccc(-n2c(=O)[nH]c3c(C(N)=O)nc(C(C)C)nc32)c1 | inactive: -7.26% | 
O=C(NC1CCCCC1)NC1CC2CCC(C1)N2C(=O)NC1CCCCC1 (centres undefined) |  | inconclusive [activator, single point]
Cc1c(C(=O)N(Cc2ccccc2)Cc2cccs2)cnn1-c1ccc(Cl)cc1 | inactive: 0.545% | 
